# Source: PubChem BioAssay AID1671194 (National Center for Advancing Translational Sciences (NCATS), 2021)
# “And” between values parts separate entries of the source, which are not always exact repeats. Equal values may be shown once. The campaign covered roughly 140,000 compounds. About 240 (0.17%) were called active. This list was built around the results that the source calls inconclusive (neither active nor inactive); the mix of calls is not that of the screen. Calls follow the shape of the dose curve; as a rule, active = well fitted inhibition curve with a large enough effect; inconclusive = small, poorly fitted or top-dose-only effect; inactive = no such curve, though single readings can be large or run the other way. Potencies beside an inconclusive call are fits to weak or partial responses and may not hold up.
# Assay: Primary qHTS assay for inhibitors of alpha-synuclein gene (SNCA) expression; also: nearly all actives have a fitted effect of over 45% in size
# Conditions: HEK-293 SNCA-luciferase knock-in, luminescence, 24 h; series mostly up to 57.2 µM
# Potency is read from the fitted curve at half-maximal effect; tags tell the direction and shape of the fitted curve.
row,SMILES,Potency
1,COc1ccc(CN2CCCn3nc(C)c(-c4ccnn4C(C)C)c32)cc1O,inactive
2,CCc1cccc2c(C(CC(=O)NCc3ccc4c(c3)OCO4)c3ccc(OC)c(OC)c3)c[nH]c12 (stereo unspecified),inactive
3,CCn1cc(S(=O)(=O)N2CCCCC2c2nc(CCOc3ccc(F)cc3)no2)cn1 (stereo unspecified),"inconclusive: 17.8 µM [inhibitor, single point]"
4,O=c1cc(N2CCOCC2)oc2c(NC3CCOCC3)nccc12,inactive
5,COc1cccc(C(=O)Nc2cc(-c3cccnc3)nn2-c2ccccc2)c1,inactive
6,CCCCOC(=O)c1ccc(N2CC3CCC(C2)N3CC(F)(F)F)nn1,inactive
7,Cc1cccc(N2CCN(C(=O)c3ccc4c(c3)N(C(=O)c3ccccc3)CC4)CC2)c1C,"inconclusive: 39.8 µM [inhibitor, single point]"
8,O=C(Nc1ccccc1)[C@@H]1C[C@@H](c2cccc(C(F)(F)F)c2)N(CC2CCOCC2)C1,"inconclusive: 5.01 µM [inhibitor, partial curve, poor fit]"
9,COc1ccccc1CN1CCc2nc(C(=O)Nc3ccc(Cl)cc3)oc2CC1,"inconclusive: 31.6 µM [inhibitor, partial curve, poor fit]"
10,Cc1cc(C)n(CC(=O)N2C[C@@H](Oc3ccccc3)C[C@H]2C(=O)N2CCCC2)n1,inactive
11,Cc1ccc(C(=O)N2CCC[C@H]2c2nc(-c3ccccc3Cl)no2)cc1C,inactive
12,Cc1cc(C)n(Cc2ccc(C(=O)NCCc3noc(-c4cccnc4)n3)o2)n1,"inconclusive: 2.51 µM [inhibitor, partial curve, poor fit]"
13,CNC(=O)[C@@H]1C[C@@H](Nc2ncnc(Oc3cccnc3C)c2C)CN1C,"inconclusive: 14.1 µM [inhibitor, partial curve]"
14,Cc1ccc2c(c1)cc1c(=O)n(Cc3ccc(Cl)cc3)nc(C)n12,inactive
15,CCOC(=O)c1cc(-c2ccccc2)n(CCC(=O)NCCc2ccccc2)c1C,"inconclusive: 39.8 µM [inhibitor, single point]"
16,CCN(C(=O)CSc1nc2ccccc2n1CC(=O)N(C)C1CCCCC1)c1ccccc1,"inconclusive: 2.82 µM [inhibitor, single point]"
17,C[C@H]1CCCN1C(=O)c1nnc(COc2ccc3cccnc3c2)n1-c1cccnc1,"inconclusive: 56.2 µM [inhibitor, single point]"
18,COc1ccccc1Nc1ccnc(N2CCC[C@H]2C(=O)NC(C)C)n1,"inconclusive: 39.8 µM [inhibitor, single point]"
19,CCOc1ccc(N2CC(C)Cn3c2nc2c3c(=O)n(Cc3c(F)cccc3Cl)c(=O)n2C)cc1 (stereo unspecified),"inconclusive: 7.08 µM [inhibitor, single point]"
20,CC(=O)N1CCc2c(sc3c2c(=O)n(-c2ccccc2Cl)c(=O)n3Cc2cccc(C)c2)C1,"inconclusive: 39.8 µM [inhibitor, single point]"
21,CC1CN(c2ccccc2C#N)C(=O)CN1C(=O)c1cnc2ccccc2c1 (stereo unspecified),"inconclusive: 0.794 µM [inhibitor, full curve, poor fit]"

row,SMILES,Potency
1,Cc1ccc(S(=O)(=O)c2cnc(SCC(=O)Nc3ccc4c(c3)OCCO4)[nH]c2=O)cc1C,inactive
2,c1cncc(CN2CCC[C@H]2c2nc(-c3ccnc(N4CCCC4)c3)no2)c1,inactive
3,COc1cccc(NC(=O)[C@@H]2C[C@@H](c3cccc(C(F)(F)F)c3)N(C)C2)c1,"inconclusive: 31.6 µM [inhibitor, partial curve, poor fit]"
4,COc1cc2nc(NC(=O)c3ccc(S(=O)(=O)N4CCc5ccccc54)cc3)sc2cc1OC,"inconclusive: 15.8 µM [inhibitor, single point]"
5,COc1cccc(S(=O)(=O)N2CCC3(CC2)CC(OCC2CC2)CCO3)c1 (stereo unspecified),"inconclusive: 15.8 µM [inhibitor, partial curve, poor fit]"
6,COc1ccc(NC(=O)N2CCCC(Cc3noc(-c4ccncc4)n3)C2)cc1 (stereo unspecified),"inconclusive: 22.4 µM [inhibitor, single point]"
7,CNC(=O)c1cc[nH]c1C1CCCN(C(=O)c2ccc(Cn3ccnc3)o2)C1 (stereo unspecified),"inconclusive: 11.2 µM [inhibitor, partial curve, poor fit]"
8,Cc1ccnc(NCCNC(=O)C2CCC(=O)N(CC3CCCCC3)C2)c1 (stereo unspecified),inactive
9,CCOc1ccc(-n2ccnc2SCC(=O)Nc2nc3ccc(C)cc3s2)cc1,"inconclusive: 4.47 µM [inhibitor, full curve, poor fit]"
10,O=C(O)Cn1nc2c(cc1=O)CCCC2,inactive
11,CC1(C)C(=O)N(CC(=O)Nc2cccc(F)c2)c2ccc(S(=O)(=O)N3CCCCC3)cc21,"inconclusive: 25.1 µM [inhibitor, partial curve, poor fit]"
12,CC1CCN(C(=O)C[C@@H]2c3nc(NC(=O)c4ccnc(Cl)c4)sc3C[C@@H]3[C@](C)(CO)[C@H](O)CC[C@]32C)CC1,"inconclusive: 39.8 µM [inhibitor, single point]"
13,Cn1c(=O)c(Oc2ccc(F)cc2F)cc2cnc(NC3CCOCC3)nc21,"inconclusive: 24.1 µM [inhibitor, partial curve]"
14,CCOc1ccc(NC(=O)Cn2cc(S(=O)(=O)NC)c(S(=O)(=O)NC)c2)cc1,"inconclusive: 39.8 µM [inhibitor, single point]"
15,COc1ccc(C(C)NC(=O)c2c(C)oc3ccn(Cc4cccc(F)c4)c(=O)c23)cc1 (stereo unspecified),"inconclusive: 3.55 µM [inhibitor, single point]"
16,O=C(NCc1nnc2ccc(-c3ccccc3)nn12)c1ccc(Cl)s1,inactive
17,COc1ccc(C)cc1NC(=O)CC1CCCN(c2cnn(CC3CC3)c(=O)c2)C1 (stereo unspecified),"inconclusive: 39.8 µM [inhibitor, single point]"
18,O=C(NC1CCN(c2ccnc3ccnn23)C1)C1CC1 (stereo unspecified),inactive
19,CCOc1ccccc1C(=O)NC1CCN(c2cc(-c3ccc(OC)cc3)[nH]n2)C1 (stereo unspecified),inactive
20,COc1ccc(-c2cc3nc4c(c(=O)n3[nH]2)CN(C(=O)c2ccncc2)CC4)cc1,"inconclusive: 0.794 µM [inhibitor, full curve, poor fit]"
21,O=C(NCc1ccccc1)c1nc2sccn2c1-c1ccc(C(F)(F)F)cc1,"inconclusive: 39.8 µM [inhibitor, single point]"

row,SMILES,Potency
1,Cc1cccc(N2CCN(C(=O)CN3C(=O)COc4ccc(S(=O)(=O)N5CCCCCC5)cc43)CC2)c1C,"inconclusive: 31.6 µM [inhibitor, single point]"
2,Cc1cc2c(C(C)C)c(O)c(O)c(C=O)c2c(O)c1-c1c(C)cc2c(C(C)C)c(O)c(O)c(C=O)c2c1O,"inactive and inconclusive: 42.9 µM [inhibitor, single point] and inconclusive: 7.94 µM [inhibitor, full curve, poor fit]"
3,O=C(c1cc(C(F)(F)F)cc(C(F)(F)F)c1)N1CCC2(CCCN(c3ccncc3)C2)CC1,"inconclusive: 20 µM [inhibitor, partial curve, poor fit]"
4,O=C(NCCc1ccccc1)C1CCCN(c2nccc(Nc3ccccc3F)n2)C1 (stereo unspecified),"inconclusive: 14.1 µM [inhibitor, partial curve, poor fit]"
5,O=C1NC(=NC2CCCC2)C2(CCCN(CC3CCCCC3)C2)N1c1cc(F)cc(F)c1 (stereo unspecified),inactive
6,Cc1nc2ccccc2c(=O)n1-c1ccc(NC(=O)c2cccc([N+](=O)[O-])c2)cc1,"inconclusive: 31.6 µM [inhibitor, partial curve, poor fit]"
7,CC(C)c1nc(CNC(=O)c2ccc(N(C)Cc3ccccn3)nc2)no1,"inconclusive: 2.82 µM [inhibitor, partial curve, poor fit]"
8,O=C(c1ccc2[nH]ccc2c1)N1CCC2(CC1)N=C(c1ccc(Br)cc1)NO2,inactive
9,COCCNC(=O)CSc1nc(-c2cc(OC)c(OC)c(OC)c2)[nH]c1-c1ccc(Cl)cc1,"inconclusive: 7.08 µM [inhibitor, single point]"
10,CN1CC[C@H]2CN(S(=O)(=O)c3ccc(NC(N)=O)cc3)C[C@H]21,"inconclusive: 5.01 µM [inhibitor, single point]"
11,Cc1ccc(S(=O)(=O)N2CCC(n3cnnc3C(C)C)CC2)cc1C,"inconclusive: 39.8 µM [inhibitor, single point]"
12,CCC1CN(C(=O)N2CCC(C(=O)NCCc3ccccc3Cl)CC2)c2cc(C)ccc2O1 (stereo unspecified),"inconclusive: 39.8 µM [inhibitor, single point]"
13,CC1CCCN1c1ccc(C(=O)N2CCC(Oc3cccnc3)CC2)cn1 (stereo unspecified),"inconclusive: 35.5 µM [inhibitor, partial curve, poor fit]"
14,Cn1c2c(c3cc(F)ccc31)CN(C(=O)Nc1ccc(Cl)cc1)CC2,inactive
15,Cc1ccc(OCCCCn2nnc3sc4c(c3c2=O)CCCC4)cc1,inactive
16,COc1cccc(CN2CCC3(CC2)NCCc2c3[nH]c3ccc(OC)cc23)c1,"inconclusive: 39.8 µM [inhibitor, single point]"
17,CCOC(=O)c1ccc(NC(=O)N2Cc3[nH]cnc3C[C@H]2c2nc(-c3ccc(OC(F)(F)F)cc3)no2)cc1,"inconclusive: 1.12 µM [inhibitor, full curve, poor fit]"
18,CC1=C[C@@H](CN2CCOCC2)[C@H](C(C)C)C[C@H]1Cc1nnc(-c2ccc([N+](=O)[O-])cc2)o1,"inconclusive: 2.51 µM [inhibitor, partial curve, poor fit]"
19,O=C1c2c(nc(COc3ccc(F)cc3)n2Cc2ccccc2)NCCN1CCOc1ccccc1,inactive
